Test results as given in ChEMBL document CHEMBL4888484, “Replenishing the malaria drug discovery pipeline: Screening and hit evaluation of the MMV Hit Generation Library 1 (HGL1) against asexual blood stage Plasmodium falciparum ,using a nano luciferase reporter read-out” (2022).
Screen size: about 150,000 compounds; about 540 (0.36%) showed an effect of 50% or more. This is one part of the list.

These compounds were tested on Plasmodium falciparum (assay: Primary screen in NF54 nanoGlo assay, in single point, at 2uM, 72h; a lower Z score goes with more inhibition). Details: timepoint 72 hour.
Assay type: functional, Erythrocyte

Compound | % Inhibition [%] | Z score
CCc1c(-c2ccncc2)n[nH]c1NS(=O)(=O)c1cncc(F)c1 | -20 | 2.72
CC(=O)Nc1ncc(Br)cc1C | 33 | -0.41
O=C(c1cc2c(F)cccc2s1)N1CCC[C@H]1c1ccc2c(c1)OCCO2 | -4 | 0.49
CN(C(=O)CS(C)(=O)=O)C1CCC(C(C)(C)C)CC1 (stereo not given) | -7 | 1.34
Cc1ccncc1NC(=O)c1snnc1C1CC1 | -7 | 0.9
CN1CCN2CCN(C(=O)CCc3cccc(O)c3)C[C@@H]2C1 | -1 | 0.29
CS(=O)(=O)N1CCN(c2nc(C(F)(F)F)nc3ccsc23)CC1 | -13 | 1.9
Cc1cnn(CCNc2nn3cc(C)nc3s2)c1 | -4 | 0.48
O=C1C(N2CCCC2c2ccc3c(c2)OCCO3)CCN1CC(F)(F)F (stereo not given) | -3 | 0.32
CCN(c1nccnc1C)S(=O)(=O)c1ccc2c(c1)C(=O)N(C)C2=O | -7 | 1.11
CCn1cc(C(=O)N2C[C@H]3CN(S(=O)(=O)CC)C[C@@]3(c3nc(C)no3)C2)cn1 | -6 | 0.8
CS(=O)(=O)c1ccsc1NC(=O)CCc1ccc(Cl)s1 | -7 | 1.3
C[C@@H](c1cccnc1)N(C)Cc1ccc2c(c1)CCO2 | 5 | -0.82
N#Cc1ccc(-n2nc([C@H]3CCOC3)nc2CC2=CCCC2)cc1 | -5 | 0.68
Cn1c(=O)c2c(ncn2CC(=O)c2ccc3c(c2)CCO3)n(C)c1=O | -15 | 1.24
CCN1CN(Cc2c(C)nsc2C)CC1=O | 0 | -0.04
COCCO[C@H]1CCN(C(=O)Cc2cnn(C)c2)C1 | -3 | 0.36
Cc1ccc(-c2cc(N3CCN(C(=O)c4ccccc4C(F)(F)F)CC3)ncn2)cc1 | -3 | 0.52
O=C(Cc1cc(-c2ccccc2)on1)NCCCN1CCOCC1 | -7 | 0.85
Cc1ccc(-n2nnc(C(=O)NCc3cccnc3)c2C)c(C)c1 | -13 | 1.37
Cc1nn(Cc2ccc(Cl)cc2)c(=O)n1-c1cccc(C(F)(F)F)c1 | -4 | 0.56
Cc1cc(NC(=O)NCCN2CCC[C@H](C(N)=O)C2)n(C2CCCC2)n1 | -11 | 1.85

Compound | % Inhibition [%] | Z score
O=S(=O)(c1ccccc1)C1CC2CCC(C1)N2S(=O)(=O)C1CC1 (stereo not given) | -13 | 1.63
O=C(Cc1cccc2ccccc12)N1c2ccccc2CCc2ccccc21 | -2 | 0.28
NS(=O)(=O)N1CCN(CCC(=O)NCCc2ccccc2)CC1 | -10 | 1.6
Cc1cc(Cl)ccc1NC(=O)c1cc(CN2CCCC2)on1 | -10 | 1.57
CC[C@H]1CCCCN1C(=O)Cn1cccc1-c1nc(-c2ccc3c(c2)OCO3)no1 | 6 | -0.94
COC(=O)[C@]1(N(Cc2ccccc2)C(=O)Cc2ccc(F)c(F)c2)CCOC1 | 0 | 0.05
Fc1ccc2nc(CN3CCCc4ccccc43)cn2c1 | -12 | 1.33
Cn1cc(C#N)cc1-c1nc(CC(N)=O)nn1-c1cccc2c1CCC2 | -10 | 1.35
COc1ccc(-c2cn(-c3ccc(F)cc3)c(NC(=O)CN(C(=O)c3ccccc3F)C(C)C)n2)cc1 | 7 | -0.87
CC[C@H](O)C1CCN(C(=O)CCc2nnc(CCCc3ccccc3)o2)CC1 | 5 | -0.67
CCCCn1nc(C(C)C)nc1-c1cncnc1C | -3 | 0.3
O=C(O)c1ccc(Cl)c(CN2CCC[C@H](n3cncn3)C2)c1 | -11 | 2.19
Cc1ccccc1C(=O)Nc1ccsc1-c1nnc(C2CC2)o1 | -8 | 0.85
CS(=O)(=O)CC1(Cn2cc(Br)cn2)CC1 | 3 | -0.45
CN1CCc2c(c3ccccc3n2C[C@H](O)c2ccccc2)C1 | -11 | 1.31
O=C(COc1ccccn1)N1CCN(S(=O)(=O)c2ccc3ccccc3c2)CC1 | -1 | 0.22
Cc1nc(C(F)(F)F)c(CN2CC[C@@H](N(C)CCO)[C@H]2C)s1 | -8 | 0.94
COCCOC[C@H]1CCN(C(=O)C2(C#N)CCCC2)C1 | -6 | 0.8
Cn1nc(-c2ccc(F)cc2)cc1C(=O)Nc1ccccc1Cc1nc(-c2ccco2)no1 | -9 | 1.76
O=C(c1n[nH]c2ccccc12)N1CCC(Cc2ccccc2)CC1 | -3 | 0.55
O=S1(=O)CCc2nnc(-c3cccc(C(F)(F)F)c3)n2CC1 | 0 | 0
Cc1cc2c(C)c(C(=O)N3CCOCC3)oc2c(S(=O)(=O)N2CCC(C)CC2)c1C | 6 | -0.71

Compound | % Inhibition [%] | Z score
COCCNC(=O)NC(=O)CNc1c(F)cccc1F | 2 | -0.36
COc1ccc(OC)c2c1cc(C(=O)NC[C@@H]1CCCN3CCCC[C@H]13)n2C | -3 | 0.37
CC1CC(C)CN(CC(O)COCC2CC3CCC2C3)C1 (stereo not given) | 6 | -0.74
O=C(c1cccc2ccccc12)N1C2CCC1COC2 | -10 | 1.95
O=C1N(CC2CCCCC2)CCC[C@@]1(O)CN1CCCC1 | 9 | -1.87
O=C(NC1CCOCC1)N1CC[C@@](O)(c2ccccc2)[C@H]2CCCC[C@H]21 | -10 | 1.88
CN(C[C@H]1COc2ccccc2O1)c1nccn2cnnc12 | -10 | 1.83
CCOc1ccccc1[C@H]1C2CCCCC2(O)CCN1C(=O)c1cc(OCC)c(OCC)c(OCC)c1 (stereo not given in full) | -11 | 1.72
CC1(C)O[C@H]2OC(C(=O)NCC(=O)Nc3ccccc3O)[C@@H]3OC(C)(C)O[C@@H]3[C@H]2O1 (stereo not given in full) | -10 | 1.28
CCn1nc(C)c([C@H](C)NS(=O)(=O)N2CCOCC2)c1C | 6 | -0.84
CCOC1(C(=O)N2CCc3c(CN4CCCC4)cccc32)CCCC1 | 7 | -0.88
CC(=O)Nc1ccn2ncc(C(=O)N3CCOCC3)c2c1 | -5 | 0.82
Cc1nc(N2CCC[C@H](n3cncn3)C2)ccc1Br | -8 | 1.68
CS(=O)(=O)c1ccc(N2CCN(CC3CCCC3)C(=O)C2)cc1 | -4 | 0.51
CC(C)CCNC1CCOC12CCN(C(=O)OC(C)(C)C)C2 (stereo not given) | -7 | 1.17
CNS(=O)(=O)C1CCN(C(=O)C(C)Cc2cccc(Cl)c2)C1 (stereo not given) | 0 | 0.02
O=C1NCCOCCCN(C(=O)c2cccs2)[C@H]2CCCC[C@@H]12 | -6 | 0.84
C/C(=C\c1ccco1)c1c(-c2ccccc2)ncn1[C@@H](C)c1nnn[nH]1 | 19 | -2.45
CCOC[C@@]12CCN(C(C)=O)C[C@@H]1CN(C(=O)c1ccc(C)c(C)c1)C2 | -16 | 1.87
Cc1cc(C(=O)N2CC(n3cc(CO)nn3)C2)nn1C | -4 | 0.75
Cc1nc(NCCc2csc(C(C)C)n2)cc(C2CC(O)C2)n1 (stereo not given) | -8 | 1.46
C=CCOc1cccc2c1cc(C(=O)N1CCN(c3ccccc3F)CC1)n2Cc1cccc(Cl)c1 | -1 | 0.13

Compound | % Inhibition [%] | Z score
CCCN(CCC)S(=O)(=O)N1CCC[C@H]1C(N)=O | -1 | 0.25
Cc1nccn1C[C@H]1CCCN(C(=O)[C@H]2CC[C@@H](O)CC2)C1 | 3 | -0.43
CCc1nc2c(NS(=O)(=O)c3cnn(CC)c3)cccn2n1 | 0 | 0
Cc1ccsc1CN(C)C(=O)c1ccc(-c2nc(N(C)C)ns2)cc1 | -17 | 2.67
Cn1nc(-c2ccc(F)cc2)cc1C(=O)NCCn1nc(-c2ccccn2)c2c1CCCC2 | -3 | 0.53
COc1cccc(Cc2nc(-c3cccc(NC(=O)Nc4ccc(F)cc4)c3)no2)c1 | -3 | 0.28
O=C(NCc1nc2ccccc2s1)c1nc[nH]n1 | -11 | 1.4
CCNC(=O)Nc1ccccc1C(F)(F)F | -2 | 0.26
CN(Cc1cccnc1)C[C@H]1CCCN(c2ncnc3nc[nH]c23)C1 | 4 | -0.82
CCCC(=O)NCc1ccc(C(=O)O)c(OC)c1 | 0 | 0.03
C=CC[C@]1(CO)CCCN(CC(C)(C)N2CCOCC2)C1 | -3 | 0.43
COc1ccc(CNC(=O)CN2CCC[C@H]2c2nc3ccccc3s2)cc1OC | -7 | 1.31
Cc1noc([C@@H]2CCCO[C@H]2C2CCN(CCCC(C)(C)C)CC2)n1 | 15 | -1.91
COc1cn(CC(=O)NC2CCCC2)c(CN2CCCCC2)cc1=O | 0 | 0.05
COc1ccc(OCC(=O)Nc2ccc3c(c2)nc(CN2CCN(C)CC2)n3C(C)C)cc1 | -14 | 1.2
CCOC(=O)c1cc2n(n1)C[C@@](C)(C(=O)NC1CCCCC1)N(c1ccc(F)cc1F)C2=O | 8 | -0.91
CCC1(N2CCOCC2)CCN(c2ncc(C(F)(F)F)s2)CC1 | 12 | -1.55
COCc1nc(-c2cccc(N3CCNC3=O)c2)n(CCO)n1 | -7 | 1.15
CC(C)c1cc([C@@H]2CCCN2S(=O)(=O)c2ccc(C3CCCCC3)cc2)on1 | -19 | 2.5
